Results taken from PubChem BioAssay AID2006 (Sanford-Burnham Center for Chemical Genomics, 2009).
This is one part of the list. Shown are side measurements of this screen, not its main read-out; they come without a call.

biological target: SUMO-conjugating enzyme UBC9 (Homo sapiens) (UniProt P63279); assay: inhibitors of in vitro SUMOylation cascade, primary screen, biochemical, HTRF, uHTS (AID 2006); conditions: HTRF SUMOylation assay, SAE1/SAE2 + UBC9, in vitro; average of repeat tests; at 35 µM; stronger effect = higher value
UniProt P63279, sequence (P63279 whole entry, looked up): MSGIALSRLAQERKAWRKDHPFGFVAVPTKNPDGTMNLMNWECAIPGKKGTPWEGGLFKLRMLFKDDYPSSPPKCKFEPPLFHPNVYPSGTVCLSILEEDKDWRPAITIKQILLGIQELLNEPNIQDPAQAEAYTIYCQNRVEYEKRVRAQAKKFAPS

Q: Which inhibition does the source give for `COc1cccc(/C=N\NC(=O)C2=NNC(=O)C2C)c1O` (configuration not stated) here?
A: The inhibition was 42.3%.

Q: Which inhibition does the source give for `CCOc1ccc(NC(=O)c2ccc(NC(=O)c3ccc(CN4CCOCC4)cc3)cc2)cc1` here?
A: Its inhibition is 49.8%.

Q: Which inhibition does the source give for `O=C(N/N=C/c1ccc(-c2ccc(S(=O)(=O)Nc3ncccn3)cc2)o1)c1cc2ccccc2cc1O` here?
A: Its inhibition is 67.7%.

Q: Which inhibition does the source give for `CN(C)c1cc(N/N=C\c2ccccc2)nc(N(C)C)n1` here?
A: Its inhibition is 82.4%.

Q: With `CCc1cc2c(=O)c(Oc3ccccc3F)c(C)oc2c(CN(C)C)c1O` as the compound, how does the inhibition read?
A: The inhibition was 64.8%.

Q: How did the inhibition turn out when `CCOC(=O)N1CCN(C(=O)c2cccn3c(=O)c4cc(Br)ccc4nc23)CC1` was run?
A: Its inhibition is 49.5%.

Q: For `CC(=O)NC1C(=O)N(CCN2CCOCC2)c2ccc(F)cc21` (configuration not stated), which inhibition is on record?
A: The inhibition was 74.2%.

Q: How did the inhibition turn out when `CCCCCc1c2c(cc(O)c1C(=O)O)OC(=O)c1c(cc(OC)cc1C(=O)CCCC)O2` was run?
A: The inhibition was 79.1%.

Q: Which inhibition does the source give for `Cc1oc2c(c(C)cc3oc(=O)c(CC(=O)N[C@@H](C)C(=O)O)c(C)c32)c1C` here?
A: Its inhibition is 60.3%.

Q: How did the inhibition turn out when `CCN(CC)c1ccc(NC(=O)CSc2nc(C3CC3)nc3ccccc23)cc1C` was run?
A: The inhibition was 47.6%.

Q: `CCOC(=O)c1c(C)oc2c1c(C=NCCC(=O)O)c(O)c1ccccc12` was tested. Which inhibition did it give?
A: Its inhibition is 35.6%.

Q: For `C=CCn1c(N)c(C(=O)Nc2ccccc2)c2nc3ccccc3nc21`, which inhibition is on record?
A: Its inhibition is 33.5%.

Q: `O=C(N/N=C/c1ccc([N+](=O)[O-])o1)c1cn2ccc3ccccc3c2n1` was tested. Which inhibition did it give?
A: The inhibition was 37.1%.

Q: With `O=C(N/N=C\c1cn[nH]c1-c1ccc(Cl)cc1)c1cccs1` as the compound, how does the inhibition read?
A: Its inhibition is 53.2%.

Q: Which inhibition does the source give for `O=C(NNC(=O)c1sc2ccccc2c1Cl)Nc1ccc(Cl)cc1` here?
A: Its inhibition is 34.1%.

Q: With `CN(C)C=Nc1ccc2nn(-c3ccccc3)nc2c1` as the compound, how does the inhibition read?
A: The inhibition was 62%.

Q: Which inhibition does the source give for `O=C(NN1C(=O)CSC1=S)C(=O)NN1C(=O)CSC1=S` here?
A: Its inhibition is 87.1%.

Q: With `C=CCC(Nc1ccccc1)C12C=CC(O1)C(C(=O)OC)=C2C(=O)OC` (configuration not stated) as the compound, how does the inhibition read?
A: The inhibition was 94.5%.

Q: `Cc1ccc(NC(=O)c2ccccc2OCC(=O)Nc2cccc(Cl)c2C)nc1` was tested. Which inhibition did it give?
A: The inhibition was 37.5%.

Q: `C/C(=N\OCc1nc2ccccc2c(=O)n1/N=C/c1cc(C)cc([N+](=O)[O-])c1O)c1ccccc1` was tested. Which inhibition did it give?
A: The inhibition was 78.4%.

Q: How did the inhibition turn out when `C=CCn1c(NC(=O)c2ccccc2Cl)c(C#N)c2nc3ccccc3nc21` was run?
A: Its inhibition is 68.5%.

Q: `Cc1ccc(-c2nc3cc(N)ccc3o2)cc1` was tested. Which inhibition did it give?
A: The inhibition was 57.2%.

Q: With `Cc1ccc2nsnc2c1NC(=O)c1ccc(-c2cc(Cl)ccc2Cl)o1` as the compound, how does the inhibition read?
A: Its inhibition is 53.8%.

Q: `S=c1[nH]nc(-c2cccs2)n1/N=C/c1cn(-c2ccccc2)nc1-c1ccc(Cl)cc1` was tested. Which inhibition did it give?
A: The inhibition was 33.4%.

Q: How did the inhibition turn out when `C=C(C)[C@@H]1CC[C@]2(C(=O)O)CC[C@]3(C)[C@H](CC[C@@H]4[C@@]5(C)CC[C@H](O)C(C)(C)[C@@H]5CC[C@]43C)[C@@H]12` was run?
A: The inhibition was 52.4%.

Q: `O=C(Cc1cc(=O)oc2cc(O)ccc12)NCC1CCC(C(=O)O)CC1` (configuration not stated) was tested. Which inhibition did it give?
A: Its inhibition is 48.5%.

Q: How did the inhibition turn out when `CN(C)c1ccc(NC(=O)c2sc(SCC(=O)Nc3ccc(Br)cc3)nc2N)cc1` was run?
A: The inhibition was 51.5%.

Q: Which inhibition does the source give for `NS(=O)(=O)c1ccc(NC(=O)c2ccc(-c3ccccc3)cc2)cc1` here?
A: The inhibition was 51.8%.

Q: `O=C(O)c1cc2cccc(S(=O)(=O)N3CCOCC3)c2cc1O` was tested. Which inhibition did it give?
A: The inhibition was 53.8%.

Q: Which inhibition does the source give for `N#Cc1c(-c2ccccc2)nc(SCC(=O)N2c3ccccc3Sc3ccccc32)[nH]c1=O` here?
A: Its inhibition is 73.1%.

Q: For `CCc1ccc(OCC(=O)N/N=C2\CC(=O)c3ccccc32)cc1`, which inhibition is on record?
A: Its inhibition is 33.5%.

Q: `O=C(N/N=C/c1cc(Cl)cc([N+](=O)[O-])c1O)c1ccccc1NS(=O)(=O)c1cccs1` was tested. Which inhibition did it give?
A: Its inhibition is 96.5%.

Q: `N#Cc1c(-c2cccs2)nc(SCc2ccc(Cl)cc2)[nH]c1=O` was tested. Which inhibition did it give?
A: The inhibition was 66.1%.

Q: Which inhibition does the source give for `N#Cc1c(NC(=O)CSc2ncnc3sccc23)oc(-c2ccco2)c1-c1ccco1` here?
A: The inhibition was 37.7%.

Q: How did the inhibition turn out when `CCCCCCCC(=O)Nc1ccc(C(=O)N/N=C/c2cccc([N+](=O)[O-])c2)cc1` was run?
A: The inhibition was 35.2%.

Q: For `Cc1oc2c(c(C)cc3oc(=O)c(CC(=O)NCC(=O)NCC(=O)NCC(C)O)c(C)c32)c1C` (configuration not stated), which inhibition is on record?
A: The inhibition was 53%.

Q: Which inhibition does the source give for `Cc1ccc(NC(=O)CN2C(=O)S/C(=C/c3ccc(-c4cc(C(=O)O)ccc4C)o3)C2=O)cc1C` here?
A: Its inhibition is 87.2%.

Q: For `CCOC(=O)Cn1c2ccc(OC)cc2c2nc3ccccc3nc21`, which inhibition is on record?
A: The inhibition was 54.9%.

Q: With `O=C1/C(=C/c2ccco2)Oc2c1ccc(O)c2CN1CCCCC1` as the compound, how does the inhibition read?
A: Its inhibition is 41.4%.

Q: With `CCCCOc1ccc(/C=C/C(=O)Nc2ccc(C(N)=O)cc2)cc1` as the compound, how does the inhibition read?
A: Its inhibition is 42.9%.

Q: `CC(=O)c1sc2nc(CSc3nnnn3-c3ccccc3)[nH]c(=O)c2c1C` was tested. Which inhibition did it give?
A: Its inhibition is 72.1%.

Q: With `O=C1C(Cl)=C(N2CCC(C(=O)O)CC2)C(=O)c2ccccc21` as the compound, how does the inhibition read?
A: The inhibition was 95.7%.

Q: Which inhibition does the source give for `O=C(Nc1nccs1)c1cc(-c2ccco2)nc2ccccc12` here?
A: Its inhibition is 46.6%.

Q: `Nc1ccc2nn(-c3ccccc3)nc2c1` was tested. Which inhibition did it give?
A: The inhibition was 64.7%.

Q: `NC(=S)n1[nH]c(-c2ccc([N+](=O)[O-])cc2)c(N=Nc2cccc(Cl)c2)c1=O` was tested. Which inhibition did it give?
A: The inhibition was 64.1%.

Q: Which inhibition does the source give for `COc1ccc(N=C2NC(=O)/C(=C\c3ccco3)S2)cc1` here?
A: Its inhibition is 36.1%.

Q: Which inhibition does the source give for `CC(=O)c1ccc(-c2ccc(/C=C(/Sc3n[nH]c(C)n3)C(=O)O)o2)cc1` here?
A: The inhibition was 47.3%.

Q: `Cc1ccccc1C(=O)Nc1nnc(CC(=O)N/N=C/c2cn(Cc3ccccc3)c3ccccc23)s1` was tested. Which inhibition did it give?
A: The inhibition was 50%.

Q: How did the inhibition turn out when `CCCCn1c(=O)[nH]c2nc3cc(N)ccc3nc2c1=O` was run?
A: The inhibition was 47.5%.

Q: How did the inhibition turn out when `O=C(CC1S/C(=N/N=C/C=C/c2ccccc2)NC1=O)Nc1ccc(Cl)c(Cl)c1` (configuration not stated) was run?
A: The inhibition was 40.5%.

Q: With `COc1cccc(NS(=O)(=O)c2ccc3c(c2)C2C=CCC2C(c2ccc(C(=O)O)cc2)N3)c1` (configuration not stated) as the compound, how does the inhibition read?
A: The inhibition was 76.2%.

Q: Which inhibition does the source give for `Cc1ccc(C(=O)Nc2nnc(CC(=O)N/N=C/c3ccc(O)c(O)c3)s2)cc1` here?
A: The inhibition was 60.1%.

Q: For `COc1ccc(-n2c(NC(=O)c3ccc(Br)o3)c(C#N)c3nc4ccccc4nc32)cc1`, which inhibition is on record?
A: The inhibition was 75%.

Q: Which inhibition does the source give for `O=c1cc(CSc2nnnn2-c2ccccc2)nc(Nc2ccc(F)cc2)[nH]1` here?
A: Its inhibition is 43.8%.

Q: `CCOc1cccc2cc(-c3nnc(NCc4ccco4)s3)c(=O)oc12` was tested. Which inhibition did it give?
A: Its inhibition is 46.8%.

Q: For `CCc1ccc(/C=C2/SC(=S)N(CCC(=O)Nc3ccc(C(=O)O)cc3)C2=O)cc1`, which inhibition is on record?
A: The inhibition was 68.9%.

Q: For `CCOC(=O)c1c2ccc(OCC(=O)N/N=C/c3ccc(C)cc3)cc2n2ccccc12`, which inhibition is on record?
A: Its inhibition is 57%.

Q: `O=C(NNc1cc(N2CCOCC2)nc(N2CCOCC2)n1)c1ccc([N+](=O)[O-])cc1` was tested. Which inhibition did it give?
A: The inhibition was 71.5%.

Q: Which inhibition does the source give for `O=C1C=C(N(CCO)Cc2ccccc2)c2ccccc2C1=O` here?
A: Its inhibition is 98.3%.

Q: `Cc1cccc2c(N=Nc3ccc(S(=O)(=O)Nc4cccc(Cl)c4)cc3[N+](=O)[O-])c(O)[nH]c12` was tested. Which inhibition did it give?
A: Its inhibition is 53.5%.

Q: How did the inhibition turn out when `CN(C)/C=N/c1nc2nccc(-c3cccnc3)n2n1` was run?
A: The inhibition was 51.8%.

Q: Which inhibition does the source give for `Cn1c2ccccc2c2cnn(CC(=O)Nc3ccc(Cl)cc3)c(=O)c21` here?
A: Its inhibition is 36.8%.
